In patent US20070161060A1 (published 2007):

Biological target: T1, His-PIPKIγ661 (mouse by paragraph 21, human by paragraph 73, UniProt O70161 1-661)
T1 construct: Recombinant, purified from E. coli; I took these to be the same pET28 product; also called recombinant T7-tagged PIPKIγ; nonphosphorylated PIPKIγ661; not shown: His tag / T7 tag of the pET28 vector
Assay: GST pulldown
Procedure: To further analyze the association of PIPKIγ661 with the μ2-subunit of AP2, a GST pulldown approach was used. Since the full-length μ2-subunit is primarily insoluble in Escherichia coli, a truncation mutant was generated. This was accomplished by deleting of the bulk of the N-terminal domain and replacing it with GST. The resulting soluble construct contained the complete linker domain and the C-terminal domain. The GST pulldown was then performed by incubating PIPKIγ661 with GST-μ2 in the presence of glutathione conjugated SEPHAROSE™ beads.
Immunoprecipitation was performed according to standard methods (Ling, et al. (2002) supra). Briefly, cells were harvested and lysed in lysis buffer (50 mM Tris-HCl, pH 7.5, 150 mM NaCl, 0.2% NP-40, 2 mM Na₃VO₄, 1 mM EDTA, 1 mM PMSF, and 10% glycerol). Cell lysates were incubated with 50 μL of 1:1 diluted Protein A-SEPHAROSE and 2-5 μg of the appropriate antibodies at 4° C. for 4 hours to overnight. The immunocomplexes were separated by 7.5% to 10% SDS-PAGE, and analyzed as indicated. GST-tagged PIPKIα, PIPKIγ635, PIPKIγ661, His-tagged E-cadherin tail or HR-E-cadherin tail were expressed and purified from E. coli, and GST pull-down assays were performed according to well-established methods (Ling, et al. (2003) supra). […] The beads were washed with 1 ml buffer B four times, resolved by SDS-PAGE and analyzed via western blot. […]

B1: GST alone (other)
chain: not shown
binding result: no binding
